About 4,300 (8.3%) of roughly 52,000 compounds were called active. Rule as the data show it: active = survival mostly below about 52% (no sharp cut-off); inactive = mostly above about 56%. This is one part of the list.

This assay has as its system DeltatarO mutant. Briefly: growth inhibition of S. aureus wild type versus tarO mutant, primary screen, teichoic acid synthesis inhibitors, RN4220, OD600 (AID 463173). Conditions: OD600, 18 h, active compounds read low, screened at 18.75 µg/mL (by protocol).
Consider `COc1cccc(NC(=O)Cn2c(=O)n(CCCCC(=O)NCc3ccccc3Cl)c(=O)c3ccccc32)c1`, for which the survival was inactive: 83%.

Turning to `CC1CCN(C(=O)CSc2nc3ccccc3nc2Cc2ccccc2)CC1`, the survival is inactive: 99%.

Take `CCOc1ccccc1N1CCN(S(=O)(=O)c2ccc(C3CCCCC3)cc2)CC1`: the survival is inactive: 50%.

With `CCC(=O)N1CCc2cc(S(=O)(=O)Nc3cc(C)ccc3OC)ccc21`, the survival was inactive: 84%.

Turning to `COc1ccc(-c2csc3ncnc(Nc4cc(OC)cc(OC)c4)c23)cc1`, the survival is inactive: 106%.

Regarding `CC(C)C(=O)Nc1ccc2nc(SCC(=O)N3CCc4ccccc43)sc2c1`, the survival is inactive: 97%.

In the case of `Cc1ccc(-n2c(SCC(=O)c3ccccc3)nc3c([nH]c4ccccc43)c2=O)cc1`, the survival is active: -5%.

As for `COc1ccccc1CC(=O)Nc1ccc2nc(Nc3cccc(Cl)c3)cc(C)c2c1`, the survival is inactive: 144%.

Consider `CCOc1ccc(NC(=O)CCc2c(C)nc3cc(-c4ccc(Cl)cc4)nn3c2C)cc1`, for which the survival was active: 35%.

For the compound `COC(=O)CNC(=O)c1cc2sccc2n1Cc1ccccc1`, the survival was inactive: 97%.

For the compound `CCCOc1ccc(NC(=O)C(=O)NCCCN2CCOCC2)cc1`, the survival was inactive: 86%.

`Cc1ccc(CNC(=O)CS(=O)(=O)Cc2nc(-c3ccccc3C)oc2C)cc1`: the survival is inactive: 102%.

As to `CCCCCn1c(=O)[nH]c2cc(C(=O)NCc3ccccc3)ccc2c1=O`, the survival was inactive: 80%.

Consider `CCN(CC)S(=O)(=O)c1ccc2c(c1)N(CC(=O)NCCCN1CCN(c3cc(Cl)ccc3C)CC1)C(=O)CO2`, for which the survival was inactive: 53%.

On to `Cc1cccc(Cn2c(SCc3ccc(C(=O)NC4CCCC4)cc3)nc3ccncc32)c1`, for which the survival was active: 54%.

As for `COc1ccc(CNC(=O)Cc2c(C)c3c(cc(C)c4c(C)c(C)oc43)oc2=O)cc1OC`, the survival is inactive: 84%.

Turning to `Cc1ccc(NC(=O)c2sc(-n3nc(C)c(Cc4ccc5c(c4)OCO5)c3C)nc2C)cc1Cl`, the survival was inactive: 105%.

For `Cc1cccc(-c2noc(CNC(=O)c3ccccc3Br)n2)c1`, the survival is inactive: 72%.

`CCCn1cnc2cc(NCc3ccc(OC)cc3OC)ccc21`: the survival is inactive: 64%.

`Cc1cc(=O)oc2cc(OCC(=O)Nc3ccc(O)c(C(=O)O)c3)ccc12`: the survival is inactive: 71%.

For `CCOc1ccc(CC(=O)N2CCc3cc(OC)c(OC)cc3C2COc2ccc3c(C)cc(=O)oc3c2)cc1` (centres undefined), the survival was inactive: 55%.

Turning to `CC(C)CC(=O)Nc1ccccc1-c1nnn(CC(=O)N2CCc3ccccc3C2)n1`, the survival is inactive: 92%.

For `COc1ccc2c(c1)c1c(c(=O)n(Cc3ccccc3)c(=O)n1CC(=O)NCc1ccccc1)n2C`, the survival was inactive: 91%.

Regarding `Cc1cc(C)cc(NC(=O)N2CCN(c3cc(-c4noc(C)n4)ccc3C)CC2)c1`, the survival was inactive: 87%.

Take `CCOCCCNC(=O)c1ccc(-n2c(-c3ccccc3)cc3c2CCCCC3)cc1`: the survival was inactive: 49%.

For `CN(C)CCN(Cc1ccco1)C(=O)c1oc2ccccc2c1NC(=O)c1cccc(F)c1`, the survival is inactive: 117%.

With `CCC(=O)N1CCc2cc(Br)cc(S(=O)(=O)CCC(=O)Nc3cccc(C)c3C)c21`, the survival is inactive: 144%.

Regarding `COc1ccc(CNCc2c(C(=O)O)n(Cc3ccc(F)cc3)c3cc(C)ccc23)cc1OC`, the survival was inactive: 82%.

For `Cc1cccc(NC(=O)C2CCN(c3cnccn3)CC2)c1`, the survival is inactive: 54%.

`COc1ccc(Cn2c(=O)c3ccccc3n3c(-c4cccc(OC)c4OC)nnc23)cc1`: the survival is inactive: 93%.

On to `COc1ccc(CC(=O)Nc2ccc3nc(N4CCCCC4)cc(C)c3c2)cc1`, for which the survival was active: 51%.

Turning to `CC1CCN(S(=O)(=O)c2ccc3c(c2)oc(=O)n3CC(=O)O)CC1`, the survival is active: 0%.

As to `CCOC(=O)c1c(NC(C)=O)c2c3c(sc2n1Cc1nc(-c2ccccc2Cl)oc1C)CCCC3`, the survival is inactive: 105%.

Take `Cc1ccc(CNC(=O)c2cc3c(s2)-c2c(C)cccc2OC3)cc1`: the survival was inactive: 68%.

`CCc1cc(=O)[nH]c(SCc2nc(-c3ccccc3)no2)n1`: the survival was inactive: 95%.

`Cc1cccc(CC(=O)NCc2nc3cccnc3n2Cc2ccc(F)cc2)c1`: the survival was inactive: 72%.

In the case of `CCCOc1ccc(C(=O)Nc2ccc(NC(=O)c3ccccc3)c(C)c2)cc1`, the survival was inactive: 82%.

As for `Cc1cccc(C(=O)NC2=NC(c3ccc(Cl)cc3)CC(=O)N2)c1` (centres undefined), the survival was inactive: 88%.

With `CCNC(=O)c1c(NC(=O)c2nc(S(=O)(=O)CC)ncc2Cl)sc2c1CCCC2`, the survival is active: 34%.

Take `O=C(CSc1nc(=O)[nH]c2c1CCCC2)NCc1ccc(F)cc1`: the survival was inactive: 69%.

Take `COCCn1c(C)cc(O)c(C(c2ccc(F)cc2)N2CCN(c3ccccc3)CC2)c1=O` (centres undefined): the survival was active: 47%.

With `CCOC(=O)c1c(C)c(-c2ccccc2)n(CC(=O)NCCc2cccc(C)c2)c1C`, the survival was inactive: 100%.

Take `COc1ccc(CC(=O)NCCS(=O)(=O)N2CCN(c3ccc(F)cc3)CC2)cc1OC`: the survival is inactive: 70%.

For the compound `N#Cc1ccccc1Cn1cnc2nc3c(cc2c1=O)CCCC3`, the survival was inactive: 101%.

Consider `CCc1nc(C)cn1S(=O)(=O)c1ccc(Cl)c(Cl)c1OC`, for which the survival is inactive: 71%.

As to `COc1ccc(CCNC(=O)c2cn(C)c3ccc(S(=O)(=O)N(C)C)cc3c2=O)cc1OC`, the survival is inactive: 84%.

Consider `CC1CCCN(S(=O)(=O)c2cc3c4c(c2)CC(=O)N4CCC3)C1` (centres undefined), for which the survival is inactive: 91%.

Consider `CCN(C(=O)c1cn(CC(C)C)c(=O)c2cc(OC)c(OC)cc12)c1cc(OC)ccc1OC`, for which the survival was inactive: 55%.

Take `CC(C)c1ccc(NC(=O)Cn2nnc(C(=O)NCc3ccc(Cl)cc3)c2N)cc1`: the survival is inactive: 102%.

Consider `CCN(CC)S(=O)(=O)c1ccc(-c2nnc(SCC(=O)Nc3nc4ccccc4s3)o2)cc1`, for which the survival was inactive: 66%.

Turning to `COc1ccc2c(c1)sc1ncc(C(=O)NCc3cccc(C)c3)c(=O)n12`, the survival is inactive: 59%.

As for `CCc1ccc(C(=O)c2cn(CC(=O)Nc3cc(F)ccc3F)c3nc(C)ccc3c2=O)cc1`, the survival was inactive: 116%.

Take `CCOC(=O)C1CCC(CN(Cc2ccc(OC)cc2)S(=O)(=O)c2ccc(F)c(C(=O)Nc3c(C)cccc3C)c2)CC1` (centres undefined): the survival is inactive: 83%.

Consider `O=C(Nc1cccc(Cl)c1)C1CCCN(c2ncnc3c2nc2n3CCCCC2)C1` (centres undefined), for which the survival was active: 17%.

On to `O=C(Cn1cnc2c(nc3n2CCCCC3)c1=O)Nc1ccc(F)c(Cl)c1`, for which the survival is inactive: 102%.

Regarding `CS(=O)(=O)Nc1ccccc1C(=O)OCc1cc(=O)n2nc(C3CCCCC3)sc2n1`, the survival is inactive: 70%.

Take `Cc1cc(F)ccc1NC(=O)CS(=O)(=O)c1cccc2nsnc12`: the survival is inactive: 77%.

Consider `Cc1ccccc1Nc1c(-c2ccccc2)nc2cccc(C)n12`, for which the survival is inactive: 98%.

Turning to `CSc1ccc(CCNC(=O)c2cc3cc(S(=O)(=O)N4CCCCC4)ccc3n2C)cc1`, the survival was inactive: 66%.

In the case of `COc1ccc(CNc2nc(SCc3ccccc3Cl)nc3ccccc23)cc1`, the survival is inactive: 103%.

Take `COc1ccc(N2CC(NC(=O)C3CCCC3)CC2=O)cc1OC` (centres undefined): the survival is inactive: 104%.

`Nc1nnc(CCC(CCc2nnc(N)s2)(CCc2nnc(N)s2)C(=O)c2ccccc2)s1`: the survival is inactive: 92%.

As for `CC(C)c1ccc(NC(=O)N2CCC(c3nc4ccccc4o3)CC2)cc1`, the survival is inactive: 66%.

With `COc1ccc(OC2CCN(S(=O)(=O)c3ccc(OC)cc3)CC2)cc1`, the survival is inactive: 107%.

For `CC1(c2ccccc2)OC(=O)C(C#N)C12CCCCC2` (centres undefined), the survival is inactive: 103%.

Regarding `COc1cc(NC(=O)CN(C)S(=O)(=O)c2ccc3[nH]c4c(c3c2)CCCC4)cc(OC)c1OC`, the survival was inactive: 84%.

Turning to `c1ccc(OCCSc2nc3ccccc3o2)cc1`, the survival is inactive: 78%.

For the compound `O=C(Nc1ccccc1)Oc1ccc2sc(=O)oc2c1`, the survival is inactive: 100%.

Consider `CN(C)C(=O)/C=C/c1ccc2c(c1)OCO2`, for which the survival was inactive: 81%.

As for `CCOC(=O)N1CCc2c(sc(NCc3ccc(OCC)cc3)c2C(=O)Nc2ccc(OC)cc2OC)C1`, the survival was inactive: 70%.

As to `O=C(NC1CCCC1)c1ccc(CSc2nc3ccncc3n2Cc2ccccc2F)cc1`, the survival is inactive: 67%.

For the compound `O=C1C2=C(Nc3[nH]c(=O)[nH]c(=O)c3C2c2cccs2)c2ccccc21` (centres undefined), the survival is inactive: 88%.

As to `CC1=C(C(=O)Nc2cccnc2)C(c2ccc(F)cc2)n2nc(SCc3ccccc3F)nc2N1` (centres undefined), the survival was inactive: 72%.

Turning to `C=Cn1cc[n+](CC(=O)c2ccc(Cl)cc2)c1`, the survival was inactive: 87%.

Turning to `COC(=O)c1ccc(S(=O)(=O)N2CCC(c3nc4ccccc4s3)CC2)cc1`, the survival was inactive: 71%.

In the case of `CN1c2cc(Cl)ccc2-c2nc(SCC(=O)Nc3ccc(F)cc3F)ncc2S1(=O)=O`, the survival is inactive: 71%.

With `CCOC(=O)C1C(=O)C(C(=O)OCC)C(c2cccnc2)NC1c1cccnc1` (centres undefined), the survival was inactive: 93%.

For the compound `CCc1ccc(CNC(=O)C(CC)n2ccc3cc(S(=O)(=O)N4CCCCC4)ccc32)cc1` (centres undefined), the survival was inactive: 102%.

Take `CC(=O)Nc1ccccc1C(=O)NCc1ccco1`: the survival was inactive: 100%.

With `COc1ccc(CNS(=O)(=O)c2cc(C(=O)Nc3cc(Cl)cc(Cl)c3)ccc2F)cc1`, the survival is inactive: 86%.

With `COc1ccccc1C(=O)NCc1ccc2c(c1)CCN2C(=O)c1ccncc1`, the survival is inactive: 87%.

`CCOC(=O)C1CCCN(C(=O)C2CCN(c3nnc(C)c4c(C)n(-c5ccccc5)nc34)CC2)C1` (centres undefined): the survival was inactive: 129%.

With `CC1=NN(c2ccccc2)C(c2ccccc2)C1` (centres undefined), the survival is inactive: 101%.

Turning to `C=C(C)CSc1nc(C)cc(C)c1C#N`, the survival was inactive: 61%.

Regarding `Cc1cc(NC(=O)CSc2nc3c([nH]c4ccccc43)c(=O)n2-c2cccc(Cl)c2)no1`, the survival was inactive: 73%.

Take `Clc1ccc(-c2noc3ncnc(NCCCN4CCN(c5ccccc5)CC4)c23)cc1`: the survival was inactive: 87%.

Regarding `Cc1ccc(C)c(N(CC(=O)Nc2ccccc2)S(C)(=O)=O)c1`, the survival was inactive: 71%.

On to `CCOc1ccccc1NC(=O)C(Cc1ccccc1)NS(=O)(=O)c1ccc(Br)s1` (centres undefined), for which the survival was inactive: 133%.

On to `CCc1ccc(S(=O)(=O)c2nnn3c2nc(NCc2cccs2)c2sccc23)cc1`, for which the survival was inactive: 56%.

The values are drawn from PubChem BioAssay AID463173 (ICCB-Longwood Screening Facility, Harvard Medical School, 2010).
